Test results from patent US12479866B2, “Boron-containing rho kinase inhibitors” (Percipiad, Inc., priority 2019, dated 2025).

Tests used:
Assay in all cases: AGC Kinase Selectivity Profiling (ADP-Glo)
Assay type in all cases: biochemical
AKT1 = AKT1 (Homo sapiens (Human), UniProt P31749); details: 1 μM compound; AGC Panel; read-out: Percent enzyme activity inhibition, AKT1
Description: (§1) ROCK1 (also called ROCK I, ROKβ, Rho-kinase β, or p160ROCK) and ROCK2 ((also known as ROCK II, ROKα, or Rho kinase) belong to AGC family of serine/threonine kinases. The group of AGC kinases consists of 63 evolutionarily related serine/threonine protein kinases comprising PDK1, PKB/Akt, SGK, PKC, PRK/PKN, MSK, RSK, S6K, PKA, PKG, DMPK, MRCK, ROCK, NDR, LATS, CRIK, MAST, GRK, Sgk494, and YANK, while two other families, Aurora and PLK, are the most closely related to the group (Leroux et al., AGC kinases, mechanisms of regulation and innovative drug development, Semin Cancer Biol. 2018 February; 48:1-17).

PKCd = PKCd (Homo sapiens (Human), UniProt Q05655); details: 1 μM compound; AGC Panel; read-out: Percent enzyme activity inhibition, PKCd
Description: as §1

PKCe = PKCe (Homo sapiens (Human), UniProt Q02156); details: 1 μM compound; AGC Panel; read-out: Percent enzyme activity inhibition, PKCe
Description: as §1

PKCg = PKCg (Homo sapiens (Human), UniProt P05129); details: 1 μM compound; AGC Panel; read-out: Percent enzyme activity inhibition, PKCg
Description: as §1

PKCi = PKCi (Homo sapiens (Human), UniProt P41743); details: 1 μM compound; AGC Panel; read-out: Percent enzyme activity inhibition, PKCi
Description: as §1

PKCtheta = PKCtheta (Homo sapiens (Human), UniProt Q04759); details: 1 μM compound; AGC Panel; read-out: Percent enzyme activity inhibition, PKCtheta
Description: as §1

PKCz = PKCz (Homo sapiens (Human), UniProt Q05513); details: 1 μM compound; AGC Panel; read-out: Percent enzyme activity inhibition, PKCz
Description: as §1

p7056Kb = p7056Kb (Homo sapiens (Human), UniProt Q9UBS0); details: 1 μM compound; AGC Panel; read-out: Percent enzyme activity inhibition, p7056Kb
Description: as §1

UniProt Q05655, sequence (Q05655 whole entry): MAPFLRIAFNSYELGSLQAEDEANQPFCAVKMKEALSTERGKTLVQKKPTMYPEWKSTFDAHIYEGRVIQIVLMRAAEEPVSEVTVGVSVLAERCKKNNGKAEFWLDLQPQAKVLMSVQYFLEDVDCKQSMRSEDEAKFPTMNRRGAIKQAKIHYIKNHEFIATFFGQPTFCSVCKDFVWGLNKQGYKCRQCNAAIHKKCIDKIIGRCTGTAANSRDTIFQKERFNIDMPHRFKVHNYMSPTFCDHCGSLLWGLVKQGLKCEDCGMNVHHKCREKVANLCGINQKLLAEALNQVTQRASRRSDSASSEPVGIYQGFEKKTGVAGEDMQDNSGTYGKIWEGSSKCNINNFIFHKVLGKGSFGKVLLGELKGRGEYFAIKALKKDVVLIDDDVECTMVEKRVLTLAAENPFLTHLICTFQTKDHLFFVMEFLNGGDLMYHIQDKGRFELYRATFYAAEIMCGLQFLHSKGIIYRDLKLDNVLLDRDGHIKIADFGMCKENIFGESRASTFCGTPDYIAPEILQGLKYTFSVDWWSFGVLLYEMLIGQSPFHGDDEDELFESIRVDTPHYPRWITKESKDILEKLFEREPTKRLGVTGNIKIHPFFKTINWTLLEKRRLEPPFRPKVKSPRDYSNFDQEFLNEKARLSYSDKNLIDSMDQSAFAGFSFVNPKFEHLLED
UniProt Q04759, sequence (Q04759 whole entry): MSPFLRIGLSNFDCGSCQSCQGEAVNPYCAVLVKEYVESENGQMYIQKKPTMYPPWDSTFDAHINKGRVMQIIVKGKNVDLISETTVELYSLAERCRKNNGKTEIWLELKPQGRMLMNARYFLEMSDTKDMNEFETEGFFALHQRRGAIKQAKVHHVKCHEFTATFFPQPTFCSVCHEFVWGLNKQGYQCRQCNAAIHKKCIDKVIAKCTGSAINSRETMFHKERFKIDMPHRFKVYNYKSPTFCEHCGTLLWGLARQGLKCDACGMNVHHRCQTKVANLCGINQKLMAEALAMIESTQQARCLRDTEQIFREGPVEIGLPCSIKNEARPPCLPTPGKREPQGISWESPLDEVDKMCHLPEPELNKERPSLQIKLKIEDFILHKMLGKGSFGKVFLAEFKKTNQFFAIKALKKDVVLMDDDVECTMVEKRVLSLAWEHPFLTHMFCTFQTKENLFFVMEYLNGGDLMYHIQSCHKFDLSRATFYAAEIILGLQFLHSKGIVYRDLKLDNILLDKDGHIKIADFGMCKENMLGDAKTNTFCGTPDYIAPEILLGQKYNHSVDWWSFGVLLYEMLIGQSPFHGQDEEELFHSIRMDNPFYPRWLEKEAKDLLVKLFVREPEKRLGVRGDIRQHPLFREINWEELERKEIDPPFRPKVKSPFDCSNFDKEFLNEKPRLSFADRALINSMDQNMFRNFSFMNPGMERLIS
UniProt P41743, sequence (P41743 whole entry): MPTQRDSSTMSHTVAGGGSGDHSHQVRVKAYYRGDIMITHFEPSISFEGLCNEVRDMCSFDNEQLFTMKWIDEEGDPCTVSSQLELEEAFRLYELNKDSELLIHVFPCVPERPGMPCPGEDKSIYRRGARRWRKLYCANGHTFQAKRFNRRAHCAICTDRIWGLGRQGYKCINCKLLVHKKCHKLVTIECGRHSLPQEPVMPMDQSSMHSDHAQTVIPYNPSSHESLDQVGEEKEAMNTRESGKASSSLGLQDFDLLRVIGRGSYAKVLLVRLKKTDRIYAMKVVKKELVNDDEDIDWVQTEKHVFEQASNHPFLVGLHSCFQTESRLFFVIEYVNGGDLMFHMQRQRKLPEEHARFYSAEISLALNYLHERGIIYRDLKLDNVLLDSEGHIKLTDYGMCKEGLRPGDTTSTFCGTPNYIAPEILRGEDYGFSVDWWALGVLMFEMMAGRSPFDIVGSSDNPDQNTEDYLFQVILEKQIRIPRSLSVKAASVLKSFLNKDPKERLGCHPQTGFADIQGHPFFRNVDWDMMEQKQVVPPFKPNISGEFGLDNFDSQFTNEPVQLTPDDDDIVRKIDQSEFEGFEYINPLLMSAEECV
UniProt P31749, sequence (P31749 whole entry): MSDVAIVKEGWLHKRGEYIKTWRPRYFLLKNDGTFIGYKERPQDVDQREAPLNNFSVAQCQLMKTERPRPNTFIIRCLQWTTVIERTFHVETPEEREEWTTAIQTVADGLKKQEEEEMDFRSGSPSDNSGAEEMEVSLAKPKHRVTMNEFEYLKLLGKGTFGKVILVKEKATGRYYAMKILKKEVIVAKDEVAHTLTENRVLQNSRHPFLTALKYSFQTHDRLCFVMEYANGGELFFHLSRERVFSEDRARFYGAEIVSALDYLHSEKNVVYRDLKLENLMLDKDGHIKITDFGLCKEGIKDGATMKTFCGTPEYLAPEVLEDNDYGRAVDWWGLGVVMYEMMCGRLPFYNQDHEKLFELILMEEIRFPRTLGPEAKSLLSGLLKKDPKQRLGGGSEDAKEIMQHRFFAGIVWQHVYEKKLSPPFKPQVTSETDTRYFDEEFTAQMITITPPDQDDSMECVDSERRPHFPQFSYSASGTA
UniProt Q02156, sequence (Q02156 whole entry): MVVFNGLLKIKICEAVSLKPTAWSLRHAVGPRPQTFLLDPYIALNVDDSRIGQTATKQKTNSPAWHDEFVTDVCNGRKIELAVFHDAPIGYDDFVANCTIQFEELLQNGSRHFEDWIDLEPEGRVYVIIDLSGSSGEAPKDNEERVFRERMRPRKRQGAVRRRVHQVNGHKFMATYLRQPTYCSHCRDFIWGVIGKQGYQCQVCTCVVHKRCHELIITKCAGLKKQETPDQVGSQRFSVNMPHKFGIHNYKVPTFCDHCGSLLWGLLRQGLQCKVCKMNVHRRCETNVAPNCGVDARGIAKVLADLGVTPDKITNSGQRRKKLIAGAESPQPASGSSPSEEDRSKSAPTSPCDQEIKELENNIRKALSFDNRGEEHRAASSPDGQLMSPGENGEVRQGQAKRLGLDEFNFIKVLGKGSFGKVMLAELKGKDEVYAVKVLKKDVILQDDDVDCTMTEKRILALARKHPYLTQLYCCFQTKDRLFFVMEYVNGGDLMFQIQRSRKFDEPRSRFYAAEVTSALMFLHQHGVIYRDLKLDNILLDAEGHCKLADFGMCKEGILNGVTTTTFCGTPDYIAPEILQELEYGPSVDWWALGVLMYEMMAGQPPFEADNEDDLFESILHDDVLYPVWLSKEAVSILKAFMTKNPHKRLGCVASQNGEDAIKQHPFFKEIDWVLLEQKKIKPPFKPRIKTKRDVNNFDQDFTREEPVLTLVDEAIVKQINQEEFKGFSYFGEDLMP
UniProt Q05513, sequence (Q05513 whole entry): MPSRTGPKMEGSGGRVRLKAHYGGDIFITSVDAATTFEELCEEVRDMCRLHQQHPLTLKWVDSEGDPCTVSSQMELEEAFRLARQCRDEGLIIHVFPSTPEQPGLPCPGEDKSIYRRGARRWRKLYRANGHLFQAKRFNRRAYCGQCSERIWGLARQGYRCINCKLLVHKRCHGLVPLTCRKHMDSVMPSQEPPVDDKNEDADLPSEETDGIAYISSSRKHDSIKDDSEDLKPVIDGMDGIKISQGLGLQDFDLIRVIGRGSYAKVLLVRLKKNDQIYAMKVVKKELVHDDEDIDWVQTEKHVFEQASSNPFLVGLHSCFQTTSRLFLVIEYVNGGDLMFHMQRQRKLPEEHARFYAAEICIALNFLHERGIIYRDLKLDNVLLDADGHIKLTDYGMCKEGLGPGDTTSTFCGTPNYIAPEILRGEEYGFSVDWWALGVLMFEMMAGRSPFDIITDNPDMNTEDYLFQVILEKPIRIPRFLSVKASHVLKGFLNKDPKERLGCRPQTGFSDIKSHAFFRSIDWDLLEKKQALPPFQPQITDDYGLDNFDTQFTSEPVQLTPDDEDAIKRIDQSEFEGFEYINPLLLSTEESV
UniProt Q9UBS0, sequence (Q9UBS0 whole entry): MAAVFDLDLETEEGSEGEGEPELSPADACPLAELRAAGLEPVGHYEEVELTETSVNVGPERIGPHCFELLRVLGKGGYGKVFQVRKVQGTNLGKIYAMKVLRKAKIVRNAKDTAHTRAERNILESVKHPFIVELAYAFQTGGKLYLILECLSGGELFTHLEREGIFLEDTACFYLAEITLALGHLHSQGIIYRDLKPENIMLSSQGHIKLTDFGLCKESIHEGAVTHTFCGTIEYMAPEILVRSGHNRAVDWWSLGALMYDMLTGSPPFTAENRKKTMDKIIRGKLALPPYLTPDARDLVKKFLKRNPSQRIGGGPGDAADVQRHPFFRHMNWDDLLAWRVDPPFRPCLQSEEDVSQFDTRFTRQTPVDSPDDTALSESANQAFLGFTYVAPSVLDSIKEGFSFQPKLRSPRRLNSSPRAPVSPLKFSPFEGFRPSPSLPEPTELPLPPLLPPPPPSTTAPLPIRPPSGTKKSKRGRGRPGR

## Cc1ccc(C(=O)OCc2ccc([C@@H](CN)C(=O)Nc3ccc4cnccc4c3)cc2)c(C)c1.Cl.Cl [Netarsudil•2HCl, Netarsudil, reference compound]
AKT1
  inhibition at 1 µM: 5%
PKCd
  inhibition at 1 µM: 75%
PKCe
  inhibition at 1 µM: 25%
PKCg
  inhibition at 1 µM: 36%
PKCi
  inhibition at 1 µM: 20%
PKCtheta
  inhibition at 1 µM: 51%
PKCz
  inhibition at 1 µM: 22%
p7056Kb
  inhibition at 1 µM: 52%
